Further values from the same series stand in other lists.
System: 766 cancer cell lines
Assay: Large-scale cell-line viability measurements (766 cancer cell lines, 72 h, AUC)
Format: cell-based, human
Experimental: Cell lines were treated for 72 hours with concentrations ranging from 66.4 μM-2 nM in 2-fold step dilutions.
To characterize cellular sensitivity to DNMDP further, 766 genomically characterized cancer cell lines were screened for DMNDP sensitivity at concentrations ranging from 66.4 μM to 2 nM in 2-fold dilution steps for 72 hours. From these cell lines, 22 cell lines were categorized as sensitive with a robust Z-score lower than −4, which represented multiple lineages including multiple melanoma cell lines, amongst others (Table 1).
The sensitivity of […] cancer cell lines (CCLs) was measured drawn from 23 different lineages to DNMDP. Each cell line was plated in its preferred media in white opaque 1536-plates at a density of 500 cells/well. After incubating overnight, DNMDP was added by acoustic transfer at 16 concentrations ranging from 66.4 μM-2 nM in 2-fold steps in duplicate (Labcyte Echo 555, Labcyte Inc., Sunnyvale, Calif.). After 72 hours treatment, cellular ATP levels were measured as a surrogate for viability (CELLTITERGLO®, Promega Corporation, Madison, Wis.) according to manufacturer's protocols using a ViewLux Microplate Imager (PerkinElmer, Waltham, Mass.) and normalized to background (media-only) and vehicle (DMSO)-treated control wells.
Concentration response curves were fit using nonlinear fits to 2- or 3-parameter sigmoid functions through all 16 concentrations with the low-concentration asymptote set to the DMSO-normalized value, and an optimal 8-point dose curve spanning the range of compound-sensitivity was identified. The area under the 8-point dose curve (AUC) was computed by numeric integration as a metric for sensitivity for further analysis. Similar sensitivity measurements have been obtained for a collection of 480 other compounds, enabling analyses that identify cell lines responding uniquely to DNMDP (see Broad Institute Cancer Therapeutics Response Portal, a dataset to identify comprehensively relationships between genetic and lineage features of human cancer cell lines and small-molecule sensitivities for complete list of compounds).

[1] = cell line FUOV1, OVARY, 72 hours
[2] = cell line GA10 (HAEMATOPOIETIC AND LYMPHOID TISSUE)
[3] = cell line GAMG (CENTRAL NERVOUS SYSTEM)
[4] = cell line GI1 (CENTRAL NERVOUS SYSTEM)
[5] = cell line HCC1438, LUNG, 72 hours
[6] = cell line HCC1588, LUNG, 72 hours
[7] = cell line HCC1833, LUNG, 72 hours
[8] = cell line HCC2218, BREAST, 72 hours
[9] = cell line HCC2935, LUNG, 72 hours
[10] = cell line HCT116 (LARGE INTESTINE)
[11] = cell line HDLM2 (HAEMATOPOIETIC AND LYMPHOID TISSUE)
[12] = cell line HDMYZ (HAEMATOPOIETIC AND LYMPHOID TISSUE)
[13] = cell line HDQP1, BREAST, 72 hours
[14] = cell line HEC265, ENDOMETRIUM, 72 hours
[15] = cell line HEP3B217, LIVER, 72 hours

With `CCN(CC)c1ccc(C2=NNC(=O)CC2C)cc1[N+](=O)[O-]` (stereo not drawn) [DNMDP, 6-(4-(diethylamino)-3-nitrophenyl)-5-methyl-4,5-dihydropyridazin-3(2H)-one] the “DNMDP AUC” value [1] was 7.6122, the “Robust Z-score” value [1] was 1.026 and the “DNMDP AUC” value (cell line G361 (SKIN)) was 6.6284. The “Robust Z-score” value (cell line G361 (SKIN)) was −0.00656, the “DNMDP AUC” value [2] was 6.59 and the “Robust Z-score” value [2] was −0.04687. For the same compound, the “DNMDP AUC” value [3] was 6.8471, the “Robust Z-score” value [3] was 0.223 and the “DNMDP AUC” value (cell line GCT (SOFT TISSUE)) was 7.0174. The “Robust Z-score” value (cell line GCT (SOFT TISSUE)) was 0.4018, the “DNMDP AUC” value [4] was 6.9897 and the “Robust Z-score” value [4] was 0.3727. The “DNMDP AUC” value (cell line GSS (STOMACH)) was 6.794, the “Robust Z-score” value (cell line GSS (STOMACH)) was 0.1673 and the “DNMDP AUC” value (cell line HARA (LUNG)) was 6.7238. For the same compound, the “Robust Z-score” value (cell line HARA (LUNG)) was 0.09358, the “DNMDP AUC” value (cell line HCC78 (LUNG)) was 6.7625 and the “Robust Z-score” value (cell line HCC78 (LUNG)) was 0.1342. For the same compound, the “DNMDP AUC” value (cell line HCC95 (LUNG)) was 6.7794, the “Robust Z-score” value (cell line HCC95 (LUNG)) was 0.1519 and the “DNMDP AUC” value (cell line HCC202 (BREAST)) was 6.5484. For the same compound, the “Robust Z-score” value (cell line HCC202 (BREAST)) was −0.09053, the “DNMDP AUC” value (cell line HCC366 (LUNG)) was 6.9295 and the “Robust Z-score” value (cell line HCC366 (LUNG)) was 0.3095. The “DNMDP AUC” value (cell line HCC827 (LUNG)) was 6.7384, the “Robust Z-score” value (cell line HCC827 (LUNG)) was 0.1089 and the “DNMDP AUC” value (cell line HCC1171 (LUNG)) was 6.7838. For the same compound, the “Robust Z-score” value (cell line HCC1171 (LUNG)) was 0.1566, the “DNMDP AUC” value (cell line HCC1195 (LUNG)) was 6.941 and the “Robust Z-score” value (cell line HCC1195 (LUNG)) was 0.3216. The “DNMDP AUC” value [5] was 7.7264, the “Robust Z-score” value [5] was 1.146 and the “DNMDP AUC” value (cell line HCC1569 (BREAST)) was 6.6976. The “Robust Z-score” value (cell line HCC1569 (BREAST)) was 0.06608, the “DNMDP AUC” value [6] was 7.1149 and the “Robust Z-score” value [6] was 0.5041. For the same compound, the “DNMDP AUC” value (cell line HCC1806 (BREAST)) was 6.8314, the “Robust Z-score” value (cell line HCC1806 (BREAST)) was 0.2065 and the “DNMDP AUC” value [7] was 7.2887. The “Robust Z-score” value [7] was 0.6865, the “DNMDP AUC” value (cell line HCC1937 (BREAST)) was 6.5773 and the “Robust Z-score” value (cell line HCC1937 (BREAST)) was −0.0602. For the same compound, the “DNMDP AUC” value (cell line HCC1954 (BREAST)) was 6.9728, the “Robust Z-score” value (cell line HCC1954 (BREAST)) was 0.3549 and the “DNMDP AUC” value (cell line HCC2108 (LUNG)) was 6.9789. The “Robust Z-score” value (cell line HCC2108 (LUNG)) was 0.3613, the “DNMDP AUC” value [8] was 7.1208 and the “Robust Z-score” value [8] was 0.5103. For the same compound, the “DNMDP AUC” value (cell line HCC2279 (LUNG)) was 7.0072, the “Robust Z-score” value (cell line HCC2279 (LUNG)) was 0.391 and the “DNMDP AUC” value [9] was 7.5084. The “Robust Z-score” value [9] was 0.9171, the “DNMDP AUC” value [10] was 6.632 and the “Robust Z-score” value [10] was −0.002782. The “DNMDP AUC” value [11] was 6.7172, the “Robust Z-score” value [11] was 0.08665 and the “DNMDP AUC” value [12] was 6.5974. For the same compound, the “Robust Z-score” value [12] was −0.0391, the “DNMDP AUC” value [13] was 7.2935 and the “Robust Z-score” value [13] was 0.6916. The “DNMDP AUC” value (cell line HEC1A (ENDOMETRIUM)) was 7.0465, the “Robust Z-score” value (cell line HEC1A (ENDOMETRIUM)) was 0.4323 and the “DNMDP AUC” value (cell line HEC1B (ENDOMETRIUM)) was 6.9583. For the same compound, the “Robust Z-score” value (cell line HEC1B (ENDOMETRIUM)) was 0.3397, the “DNMDP AUC” value (cell line HEC6 (ENDOMETRIUM)) was 6.6667 and the “Robust Z-score” value (cell line HEC6 (ENDOMETRIUM)) was 0.03364. For the same compound, the “DNMDP AUC” value (cell line HEC50B (ENDOMETRIUM)) was 6.9622, the “Robust Z-score” value (cell line HEC50B (ENDOMETRIUM)) was 0.3438 and the “DNMDP AUC” value (cell line HEC59 (ENDOMETRIUM)) was 6.7321. For the same compound, the “Robust Z-score” value (cell line HEC59 (ENDOMETRIUM)) was 0.1023, the “DNMDP AUC” value (cell line HEC108 (ENDOMETRIUM)) was 7.0804 and the “Robust Z-score” value (cell line HEC108 (ENDOMETRIUM)) was 0.4679. The “DNMDP AUC” value (cell line HEC151 (ENDOMETRIUM)) was 6.9099, the “Robust Z-score” value (cell line HEC151 (ENDOMETRIUM)) was 0.2889 and the “DNMDP AUC” value (cell line HEC251 (ENDOMETRIUM)) was 6.7301. For the same compound, the “Robust Z-score” value (cell line HEC251 (ENDOMETRIUM)) was 0.1002, the “DNMDP AUC” value [14] was 7.2509 and the “Robust Z-score” value [14] was 0.6468. The “DNMDP AUC” value [15] was 7.4062, the “Robust Z-score” value [15] was 0.8099 and the “DNMDP AUC” value (cell line HEPG2 (LIVER)) was 6.8274. For the same compound, the “Robust Z-score” value (cell line HEPG2 (LIVER)) was 0.2023, the “DNMDP AUC” value (cell line HEYA8 (OVARY)) was 6.7972 and the “Robust Z-score” value (cell line HEYA8 (OVARY)) was 0.1706.

From US11207320B2, “Compositions and methods for cancer expressing PDE3A or SLFN12” (The Broad Institute, Inc., priority 2015, dated 2021)
